# Some of the results follow.
# B1: UDA (Urtica dioica), P11218 (protein)
# chain: MMMRFLSAVVIMSSAMAVGLVSAQRCGSQGGGGTCPALWCCSIWGWCGDSEPYCGRTCENKCWSGERSDHRCGAAVGNPPCGQDRCCSVHGWCGGGNDYCSGSKCQYRCSSSVRGPRVALSGNSTANSIGNVVVTEPLFDQMFSHRKDCPSQGFYSYHSFLVAAESFPAFGTIGDVATRKREVAAFLAHISQATSGERSDVENPHAWGLCHINTTTVTENDFCTSSDWPCAAGKKYSPRGPIQLTHNFNYGLAGQAIGEDLIQNPDLVEKDPIISFKTALWFWMSQHDNKPSCHDIVLNANSAANRIPNKGVIGNIISRAFGHDDFAVRSSSIGFYKRYCDMLGVSYGHDLKYWFDNTPSSEFQRIQMRVAA
# Key:
# Assay in all cases: glycan array binding signal (z-score within array); higher = stronger binding
# Details in all cases: glycan notation: IUPAC condensed, linker removed
# [1] = target: Fuc(a1-3)[Gal(b1-4)]GlcNAc(b1-2)Man(a1-3)[Fuc(a1-3)[Gal(b1-4)]GlcNAc(b1-2)Man(a1-6)]Man(b1-4)GlcNAc(b1-4)[Fuc(a1-6)]GlcNAc
# In short: (§1)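 Arrays were curated from the Consortium for Functional Glycomics database, 3228 in total, and kept only where the protein sequence was available. Binding is expressed as a within-array Z-score. This score was averaged across arrays of the same protein sequence at different concentrations or buffers and across linkers, and negative values can be read as non-binding.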
# [2] = target: Fuc(a1-3)[Gal(b1-4)]GlcNAc(b1-3)Gal(b1-3)[Fuc(a1-4)]GlcNAc
# In short: as §1
# [3] = target: Fuc(a1-3)[Gal(b1-4)]GlcNAc(b1-3)Gal(b1-4)[Fuc(a1-3)]GlcNAc
# In short: as §1
# [4] = target: Fuc(a1-3)[Gal(b1-4)]GlcNAc(b1-3)Gal(b1-4)[Fuc(a1-3)]GlcNAc(b1-3)Gal(b1-4)[Fuc(a1-3)]GlcNAc
# In short: as §1
# [5] = target: Fuc(a1-3)[Gal(b1-4)]GlcNAc(b1-3)GalNAc
# In short: as §1
# [6] = target: Fuc(a1-3)[Gal(b1-4)]GlcNAc(b1-6)GalNAc
# In short: as §1
# [7] = target: Fuc(a1-3)[Gal(b1-4)]GlcNAc(b1-6)[Gal(b1-3)GlcNAc(b1-3)]Gal(b1-4)Glc
# In short: as §1
# [8] = target: Fuc(a1-3)[Gal(b1-4)]GlcNAc6S
# In short: as §1
# [9] = target: Fuc(a1-3)[Gal3S(b1-4)]Glc
# In short: as §1
# [10] = target: Fuc(a1-3)[Gal3S(b1-4)]GlcNAc
# In short: as §1
# [11] = target: Fuc(a1-3)[Gal3S(b1-4)]GlcNAc6S
# In short: as §1
# [12] = target: Fuc(a1-3)[GalNAc(b1-4)]GlcNAc
# In short: as §1
# [13] = target: Fuc(a1-3)[GalNAc(b1-4)]GlcNAc6S
# In short: as §1
# Fuc(a1-4)GlcNAc = target: Fuc(a1-4)GlcNAc
# In short: as §1
# Fuc(b1-3)GlcNAc = target: Fuc(b1-3)GlcNAc
# In short: as §1
# Gal(a1-2)Gal = target: Gal(a1-2)Gal
# In short: as §1
# Gal(a1-3)Gal = target: Gal(a1-3)Gal
# In short: as §1
# Gal(a1-3)Gal(b1-3)GlcNAc = target: Gal(a1-3)Gal(b1-3)GlcNAc
# In short: as §1
# [14] = target: Gal(a1-3)Gal(b1-3)GlcNAc(b1-2)Man
# In short: as §1
# [15] = target: Gal(a1-3)Gal(b1-3)GlcNAc(b1-2)Man(a1-3)[Gal(a1-3)Gal(b1-3)GlcNAc(b1-2)Man(a1-6)]Man(b1-4)GlcNAc(b1-4)GlcNAc
# In short: as §1
# [16] = target: Gal(a1-3)Gal(b1-3)GlcNAc(b1-3)GalNAc
# In short: as §1
# [17] = target: Gal(a1-3)Gal(b1-3)GlcNAc(b1-6)GalNAc
# In short: as §1
# [18] = target: Gal(a1-3)Gal(b1-3)[Fuc(a1-4)]GlcNAc(b1-2)Man(a1-3)[Gal(a1-3)Gal(b1-3)[Fuc(a1-4)]GlcNAc(b1-2)Man(a1-6)]Man(b1-4)GlcNAc(b1-4)GlcNAc
# In short: as §1
# Gal(a1-3)Gal(b1-4)Glc = target: Gal(a1-3)Gal(b1-4)Glc
# In short: as §1
# Gal(a1-3)Gal(b1-4)GlcNAc = target: Gal(a1-3)Gal(b1-4)GlcNAc
# In short: as §1
# [19] = target: Gal(a1-3)Gal(b1-4)GlcNAc(b1-2)Man
# In short: as §1
# [20] = target: Gal(a1-3)Gal(b1-4)GlcNAc(b1-2)Man(a1-3)[Gal(a1-3)Gal(b1-4)GlcNAc(b1-2)Man(a1-6)]Man(b1-4)GlcNAc(b1-4)GlcNAc
# In short: as §1
# [21] = target: Gal(a1-3)Gal(b1-4)GlcNAc(b1-3)GalNAc
# In short: as §1
# [22] = target: Gal(a1-3)Gal(b1-4)GlcNAc(b1-6)GalNAc
# In short: as §1
# [23] = target: Gal(a1-3)Gal(b1-4)[Fuc(a1-3)]GlcNAc
# In short: as §1
# [24] = target: Gal(a1-3)Gal(b1-4)[Fuc(a1-3)]GlcNAc(b1-2)Man(a1-3)[Gal(a1-3)Gal(b1-4)[Fuc(a1-3)]GlcNAc(b1-2)Man(a1-6)]Man(b1-4)GlcNAc(b1-4)GlcNAc
# In short: as §1
# Gal(a1-3)GalNAc = target: Gal(a1-3)GalNAc
# In short: as §1
# [25] = target: Gal(a1-3)[Gal(a1-4)]Gal(b1-4)GlcNAc
# In short: as §1
# [26] = target: Gal(a1-4)Gal(b1-3)GlcNAc(b1-2)Man(a1-3)[Gal(a1-4)Gal(b1-3)GlcNAc(b1-2)Man(a1-6)]Man(b1-4)GlcNAc(b1-4)GlcNAc
# In short: as §1
# Gal(a1-4)Gal(b1-4)Glc = target: Gal(a1-4)Gal(b1-4)Glc
# In short: as §1
# Gal(a1-4)Gal(b1-4)GlcNAc = target: Gal(a1-4)Gal(b1-4)GlcNAc
# In short: as §1
# [27] = target: Gal(a1-4)Gal(b1-4)GlcNAc(b1-2)Man(a1-3)[Gal(a1-4)Gal(b1-4)GlcNAc(b1-2)Man(a1-6)]Man(b1-4)GlcNAc(b1-4)GlcNAc
# In short: as §1
# [28] = target: Gal(a1-4)Gal(b1-4)GlcNAc(b1-3)Gal(b1-4)Glc
# In short: as §1
binder,measurement,setting,value
B1,glycan array binding signal (z-score),[1],-0.17
same,glycan array binding signal (z-score),[2],-0.169
same,glycan array binding signal (z-score),[3],-0.183
same,glycan array binding signal (z-score),[4],-0.191
same,glycan array binding signal (z-score),[5],-0.175
same,glycan array binding signal (z-score),[6],-0.168
same,glycan array binding signal (z-score),[7],-0.172
same,glycan array binding signal (z-score),[8],-0.165
same,glycan array binding signal (z-score),[9],-0.17
same,glycan array binding signal (z-score),[10],-0.2
same,glycan array binding signal (z-score),[11],-0.173
same,glycan array binding signal (z-score),[12],-0.172
same,glycan array binding signal (z-score),[13],-0.177
same,glycan array binding signal (z-score),Fuc(a1-4)GlcNAc,-0.178
same,glycan array binding signal (z-score),Fuc(b1-3)GlcNAc,-0.19
same,glycan array binding signal (z-score),Gal(a1-2)Gal,-0.19
same,glycan array binding signal (z-score),Gal(a1-3)Gal,-0.189
same,glycan array binding signal (z-score),Gal(a1-3)Gal(b1-3)GlcNAc,-0.152
same,glycan array binding signal (z-score),[14],-0.183
same,glycan array binding signal (z-score),[15],-0.138
same,glycan array binding signal (z-score),[16],-0.177
same,glycan array binding signal (z-score),[17],-0.182
same,glycan array binding signal (z-score),[18],-0.091
same,glycan array binding signal (z-score),Gal(a1-3)Gal(b1-4)Glc,-0.176
same,glycan array binding signal (z-score),Gal(a1-3)Gal(b1-4)GlcNAc,0.187
same,glycan array binding signal (z-score),[19],-0.18
same,glycan array binding signal (z-score),[20],-0.157
same,glycan array binding signal (z-score),[21],-0.176
same,glycan array binding signal (z-score),[22],-0.179
same,glycan array binding signal (z-score),[23],-0.183
same,glycan array binding signal (z-score),[24],-0.156
same,glycan array binding signal (z-score),Gal(a1-3)GalNAc,-0.17
same,glycan array binding signal (z-score),[25],0.253
same,glycan array binding signal (z-score),[26],-0.031
same,glycan array binding signal (z-score),Gal(a1-4)Gal(b1-4)Glc,-0.183
same,glycan array binding signal (z-score),Gal(a1-4)Gal(b1-4)GlcNAc,-0.101
same,glycan array binding signal (z-score),[27],-0.172
same,glycan array binding signal (z-score),[28],-0.175

# From the supplement of paper PMC8728848
